Test results taken from article PMC12040169 (PLOS Biology, 2025).
This is one part of the list.

The compounds below were run on T1, C. trachomatis L2/434/Bu expressing GFP (CTL2-GFP). Conditions: total inclusion area; 28.5 h, 10 µM; inhibitor.
T1 construct: L2/434/Bu GFP intracellular growth in HeLa cells
Parameters: species or system HeLa; C. trachomatis total inclusion area by high-content imaging, normalised to DMSO
Description: In this process, we also complemented the assay described above with an imaging-based readout (Fig 1B). After measurements of bulk GFP and resorufin fluorescence, cells were fixed, stained with the DNA dye Hoechst, and imaged at a high-content imaging platform to detect chlamydial inclusions (GFP) and host cell nuclei (Hoechst). The total area and number of inclusions in individual wells and the number of nuclei then served as additional proxies for chlamydial growth and host cell viability. […] MICs were calculated as described above.
For `Cc1ccn2ncc(C(=O)N3CCCCCC3c3ccco3)c2n1` (centres unmarked) [CBK304015], the “% of control remaining” value was 60.9668. For `c1cc(CCCOc2cc(N3CCCC3)ncn2)ccn1` [CBK115897], the “% of control remaining” value was 91.9782. In the case of `O=C(NC(c1ccc(F)cc1)c1ccc2ccccc2n1)C1CCN(CCCN2CCOCC2)CC1` (centres unmarked) [CBK148118], the “% of control remaining” value is reported as 109.853. In the case of `N#CCCCN1CCC(Oc2nccnc2OC2CCCCC2)CC1` [CBK082871T], the “% of control remaining” value is reported as 86.0338. In the case of `Cc1ccc(C#N)cc1S(=O)(=O)NC(=O)CC1CCOc2ccccc21` (centres unmarked) [CBK306476], the “% of control remaining” value is reported as 52.0722. `CN(CC(=O)N1CCN(Cc2ccccc2)CC1)S(=O)(=O)c1ccc2ccccc2c1` [CBK267117] was tested, and the “% of control remaining” value was 84.1814. With `CSCCC(=O)N1CCC2(CCN(Cc3ccccc3)CC2)C1` [CBK136757] the “% of control remaining” value was 97.2469. For `Nc1nnc(Sc2nc3cc(Cl)c(Cl)cc3nc2N2CCCC2)s1` [CBK115267], the “% of control remaining” value was 81.5014. `CN1CCN(c2cc(C(F)(F)F)c3scc(C(=O)NCCC4=CCCCC4)c3n2)CC1` [CBK028474] was tested, and the “% of control remaining” value was 9.302. In the case of `O=C(NC(c1ccc(F)cc1)c1cnccn1)C1CCN(S(=O)(=O)c2cccc(Cl)c2)CC1` (centres unmarked) [CBK060013], the “% of control remaining” value is reported as 117.551. With `O=C(Nc1ccc(Cl)cc1)c1ccc(N2CCN(Cc3ccccc3)CC2)c([N+](=O)[O-])c1` [CBK264422] the “% of control remaining” value was 132.585. With `COC1CCCN(Cc2cncn2C2CCCCC2)C1` (centres unmarked) [CBK306542] the “% of control remaining” value was 44.5061. For `Cc1ccc(C(C)C(=O)N2CCC(O)(c3ccccn3)CC2)cc1` (centres unmarked) [CBK283787], the “% of control remaining” value was 95.0879. In the case of `Cc1nc2c(C(=O)NCCCN3CCCC3=O)cnn2c(C)c1Cc1cccnc1` [CBK162151], the “% of control remaining” value is reported as 88.8398. With `O=c1cc(CN2CCOCC2)oc2c(OCc3nnnn3C3CC3)cccc12` [CBK007813] the “% of control remaining” value was 50.023. In the case of `O=S(=O)(Cc1ccc(Cl)cc1Cl)N1CCOCC1` [CBK058967], the “% of control remaining” value is reported as 54.3846. In the case of `CN1CCC(N(C)Cc2ccccc2[N+](=O)[O-])CC1` [CBK261565], the “% of control remaining” value is reported as 100.366. `Cc1cc(Cl)cc(C)c1OCCN1CCNCC1` [CBK266057G] was tested, and the “% of control remaining” value was 112.479. `CC(c1ccccc1)N1Cc2cccc(C(=O)O)c2C1=O` (centres unmarked) [CBK291252] was tested, and the “% of control remaining” value was 108.653. In the case of `Cc1nnc(SCc2nnc(-c3ccccc3)o2)n1Cc1ccccc1` [CBK269743], the “% of control remaining” value is reported as 73.1584. With `COCCNC(=O)N(CCC#N)C1CCCCC1` [CBK156358] the “% of control remaining” value was 96.2224. For `O=C1CCc2cc(S(=O)(=O)Nc3ccccc3Cc3ccccc3)ccc2N1` [CBK286369], the “% of control remaining” value was 95.3544. With `CCN1C(=O)c2cccc3c(S(=O)(=O)N4CCCC4C(=O)O)ccc1c23` (centres unmarked) [CBK267169] the “% of control remaining” value was 103.198.
